According to PubChem BioAssay AID651820 (National Center for Advancing Translational Sciences (NCATS), 2012):
In all, about 340,000 compounds went through this assay and about 12,000 (3.5%) were called active. Inconclusive results, whose numbers are uncertain, are shown with a selection of clear calls. The call rests on the fitted dose curve; in most records, active means well fitted inhibition curve with a large enough effect; inconclusive means small, poorly fitted or top-dose-only effect, or another doubt; inactive means no such curve, though single readings can be large or run the other way. No potency is given beside an inconclusive call; the fits are too rough.

Assay: qHTS Assay for Inhibitors of Hepatitis C Virus (HCV)
Conditions: Huh7.5.1 HCVcc-Cre (HCVcc is cell-culture hepatitis C virus) infection, luciferase reporter, 44 h; activity change, negative = inhibition: at 41.8 µM (top of the series) unless noted
Procedure, shortened: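 1,000 cells/well; 4 h culture; + compound; + HCVcc-Cre (~0.5 moi); 44 h; luciferase substrate, RT 15 min; read 15 sec.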
On the % scale 0 is the no-effect control and ±100 the full control effect; potency means the concentration at half of the fitted maximal effect; tags describe the fitted curve by direction and shape.

Q: For `Cn1cccc1Cc1nnc(SCC(=O)N2CCCC2)n1CCc1ccccc1`, which “activity change, negative = inhibition” value is on record?
A: inactive: 1.67%

Q: With `CCN(CC)CCN1C(=O)c2ccccc2NC1c1ccc(F)cc1` (stereo not given) as the compound, how does the “activity change, negative = inhibition” value read?
A: inactive: -17.6%

Q: Which Potency does the source give for `CCc1ccc(NC(=O)c2c(Cl)nc(C)c(Cl)c2C)cc1` here?
A: inconclusive [inhibitor, full curve]

Q: With `O=C(NCC(c1ccco1)N1CCCCC1)c1ccc(NS(=O)(=O)c2ccc(F)cc2)cc1` (stereo not given) as the compound, how does the Potency read?
A: inconclusive [inhibitor, single point]

Q: With `CC(=O)c1cc2c(C)c(C(=O)c3ccccc3)oc2cc1O` as the compound, how does the “activity change, negative = inhibition” value read?
A: inactive: -12.7%

Q: Which Potency does the source give for `Cc1cccc(NC(=O)Nc2ccc(C)cc2Br)c1` here?
A: inconclusive [inhibitor, full curve, poor fit]

Q: For `CCSC1=N/C(=C\c2ccc(OC)cc2)C(=O)N1`, which Potency is on record?
A: inconclusive [inhibitor, partial curve]

Q: For `CCN(CC)S(=O)(=O)c1ccc(N2CCCC2)c(NC(=O)c2c(-c3ccccc3)noc2C)c1`, which Potency is on record?
A: inconclusive [inhibitor, partial curve]

Q: For `O=C(COc1ccccc1)Nc1ccccc1F`, which “activity change, negative = inhibition” value is on record?
A: inactive: 25.4%

Q: With `O=C(OCc1cccc([N+](=O)[O-])c1)c1ccc2ccccc2n1` as the compound, how does the “activity change, negative = inhibition” value read?
A: inactive: 10.9%

Q: For `Cc1ccc(-c2nnc(N3CCN(C(=O)c4ccco4)CC3)c3ccccc23)cc1`, which Potency is on record?
A: inconclusive [inhibitor, single point]

Q: With `O=S1(=O)c2ccc(Br)cc2N2CCC[C@@H]2CN1Cc1ccccc1` as the compound, how does the Potency read?
A: inconclusive [inhibitor, full curve]

Q: For `O=C(O)C1CC=CCC1C(=O)NNc1ccccc1` (stereo not given), which “activity change, negative = inhibition” value is on record?
A: inactive: 1.76%

Q: For `CN1CCCN(C(=O)CSc2ccccc2)CC1`, which “activity change, negative = inhibition” value is on record?
A: inactive: 2.88%

Q: For `COc1ccc(C2CC(c3cccs3)=NN2C(=O)CSc2nc(=O)n3ccc(C)cc3n2)cc1` (stereo not given), which Potency is on record?
A: inconclusive [inhibitor, single point]

Q: For `CCOc1cc(C(=O)N=c2sccn2C)cc(Br)c1OC`, which Potency is on record?
A: inconclusive [inhibitor, partial curve]

Q: Which “activity change, negative = inhibition” value does the source give for `CNC(=S)N(CCc1ccccc1)Cc1cc2cc(OC)c(OC)cc2[nH]c1=O` here?
A: inactive: 0.991%

Q: Which Potency does the source give for `COc1cc(OC)cc(C(=O)N[C@H](C(=O)Nc2nc3ccccc3[nH]2)C(C)C)c1` here?
A: inconclusive [inhibitor, single point]

Q: For `Cc1cc2nccc(-c3ccc(F)cc3)n2n1`, which “activity change, negative = inhibition” value is on record?
A: inactive: 6.17%

Q: With `CCn1c(Cl)c(C=O)s/c1=N\S(=O)(=O)c1ccccc1` as the compound, how does the Potency read?
A: active: 3.16 µM

Q: For `Cc1ccc(C)c(CSc2ncccc2C(=O)O)c1`, which “activity change, negative = inhibition” value is on record?
A: inactive: 18.9%

Q: With `O=C(Nc1c(Cl)cc2c(c1Cl)Cc1cc([N+](=O)[O-])ccc1-2)C(Cl)Cl` as the compound, how does the Potency read?
A: inconclusive [inhibitor, partial curve]

Q: Which “activity change, negative = inhibition” value does the source give for `COc1ccc(-c2cc(-c3nnc(COC(=O)CC4CC5CCC4C5)o3)c3ccccc3n2)cc1OC` (stereo not given) here?
A: inactive: -17.2%

Q: For `O=C(/C=C/c1ccccc1)NC(=S)Nc1ccc(CN2CCOCC2)cc1`, which “activity change, negative = inhibition” value is on record?
A: inactive: -18.4%

Q: With `Oc1c(C(c2ccccc2)N2CCOCC2)ccc2ccccc12` (stereo not given) as the compound, how does the Potency read?
A: inconclusive [inhibitor, partial curve, poor fit]

Q: Which “activity change, negative = inhibition” value does the source give for `CC(=O)Nc1ccc2c(c1)OCCO2` here?
A: inactive: 1.3%

Q: For `O=C(NCc1cccs1)C(=O)NCC1OCCCN1S(=O)(=O)c1cc(F)ccc1F` (stereo not given), which “activity change, negative = inhibition” value is on record?
A: inactive: -5.42%

Q: Which “activity change, negative = inhibition” value does the source give for `COC(=O)C1CN(C(=O)COc2ccc(Cl)cc2C)c2ccccc2O1` (stereo not given) here?
A: inactive: 5.11%

Q: For `CCOC(=O)c1sc2nc(C)nc(NCc3ccccc3OC)c2c1C`, which Potency is on record?
A: inconclusive [inhibitor, single point]

Q: For `COc1ccc2nc(Nc3nc(C)c(C(C)=O)s3)sc2c1`, which Potency is on record?
A: inconclusive [inhibitor, single point]

Q: With `COc1cccc(CNC(=O)C2CCN(Cc3cnn(-c4ccccc4)c3-n3cccc3)CC2)c1` as the compound, how does the Potency read?
A: inconclusive [inhibitor, single point]

Q: For `C=CCn1c(O)c(C(C)=Nc2cc(OC)ccc2OC)c(=O)[nH]c1=O`, which Potency is on record?
A: inconclusive [inhibitor, single point]

Q: For `CC(C)NC(=O)NNC(=O)Cn1nnc(-c2cccc(Cl)c2Cl)n1`, which “activity change, negative = inhibition” value is on record?
A: inactive: 14.6%

Q: With `COCC1CCCN(Cc2cn[nH]c2-c2cc3ccccc3o2)C1` (stereo not given) as the compound, how does the Potency read?
A: inconclusive [inhibitor, partial curve]

Q: With `Cc1ccc(C(=O)NC(=S)Nc2ccc(N3CCN(C(=O)c4ccco4)CC3)cc2)cc1` as the compound, how does the Potency read?
A: active: 11.2 µM

Q: Which “activity change, negative = inhibition” value does the source give for `Cc1ccc(CN2CCNC(=O)C2CC(=O)N(C)C(C2CC2)C2CC2)o1` (stereo not given) here?
A: inactive: 10.3%

Q: With `N/C(=N\OC(=O)c1ccc(Br)cc1)c1ccncc1` as the compound, how does the “activity change, negative = inhibition” value read?
A: inactive: 1.33%

Q: Which Potency does the source give for `O=[N+]([O-])c1cccc(-n2cccc2/C=N/Nc2nc(N3CCCCC3)nc(N3CCCCC3)n2)c1` here?
A: inconclusive [inhibitor, full curve, poor fit]

Q: For `Cc1nn(-c2nc3ccccc3[nH]2)c(N)c1-c1ccccc1`, which Potency is on record?
A: active: 31.6 µM

Q: For `CC(O)c1nc2cc([N+](=O)[O-])ccc2n1Cc1ccccc1` (stereo not given), which “activity change, negative = inhibition” value is on record?
A: inactive: -21.5%

Q: Which Potency does the source give for `O=C(NCc1ccco1)c1ccc(Cl)c(S(=O)(=O)N2CCc3ccccc32)c1` here?
A: inconclusive [inhibitor, single point]

Q: Which Potency does the source give for `CC(NCCN(C)C)C1CCC2C3CCc4cc(O)ccc4C3CCC12C` (stereo not given) here?
A: inconclusive [inhibitor, full curve]

Q: With `O=C(O)c1ccc(NC(=O)c2ccc(COc3ccccc3)o2)cc1` as the compound, how does the “activity change, negative = inhibition” value read?
A: inactive: 13.3%

Q: Which Potency does the source give for `CC(C)=CCc1c([C@@H]2CCc3ccc(O)cc3O2)cc2c(c1O)OC(C)(C)C=C2` here?
A: active: 14.1 µM

Q: With `COc1cccc(C2C(C(C)=O)=C(C)Nc3ncnn32)c1` (stereo not given) as the compound, how does the “activity change, negative = inhibition” value read?
A: inactive: 27.1%

Q: Which “activity change, negative = inhibition” value does the source give for `Cc1cc(O)c(C(C)C)cc1N=Cc1cc([N+](=O)[O-])ccc1O` here?
A: inactive: 22.5%

Q: Which Potency does the source give for `O=C(NCCC1CCCCN1S(=O)(=O)c1cccs1)C(=O)Nc1ccc(F)cc1` (stereo not given) here?
A: inconclusive [inhibitor, single point]

Q: Which Potency does the source give for `COc1ccc(C(NC(=O)C2CCCCC2)c2c(O)ccc3ccccc23)cc1` (stereo not given) here?
A: inconclusive [inhibitor, single point]

Q: Which Potency does the source give for `CC#CC#Cc1cccc(=O)o1` here?
A: inconclusive [inhibitor, full curve, poor fit]

Q: With `O=C1c2ccccc2C(=O)c2[nH]c(=O)[nH]c21` as the compound, how does the Potency read?
A: active: 6.31 µM
